Laboratory results published in the supplement of paper PMC12632987.
Over roughly 4,500 sequences, “median log2 fold change of GCK-ALFA target abundance (FLAG IP / Myc IP barcode read proportion)” has its median near 0.078; the lowest 2% begin near -0.6. This is one part of the list.

B1: GBRAP_52_6352 (protein)
chain: MEEKARATARELVALAQAGDEAALEARAKEIAETWSEEEIELLFRELARLARTADPATAEAILRVAEVLADALIEAGWDEYFASYLLAEVDKAVYENLQR
B2: GBRAP_52_5916 (protein)
chain: MEEEIKKIAEEILNAAIAGDEEGMKALIKEAVEKLNTEELKKLIKTLAELTAEKGPEYYDIFAKIMDILEDEVEEAGKDVEEIQYAIAEGFGLLYKAEQA
B3: GBRAP_125_2976 (protein)
chain: SKEELLEDLATVARALGFSDDDVAEAVELAGRFSVKGTLYAMMKALGYEELAELVEKITEEEAKEVLKEAAAEIRANPDMTPEEVKALLKELAEKAIAKK
B4: GBRAP_186_5389 (protein)
chain: EEEAEEELDKVIDEAEAEGYRVIVSYLENKSLEETKAAIERDADAVAALAEETGERYALIVVVKTKAEDIEELKAHAAELNKRYLARTGVRVRVVVEDSE
B5: GBRAP_52_5868 (protein)
chain: MREELREKLEEMLALVKAGDLEGARALAKELVASISEEEAEVLIEVAAEWAAELAPEDLDAAWTLMEIIAEALEEAGFPEELVTLFEGEVGSAIAKREAA
B6: GBRAP_128_3365 (protein)
chain: VDPEFLAKVKELVDKMIASDVETARELATELVELMSKASLEEQEAAVEIIKENLPKFTVEKLDVLADVIRENRDKLTPEGQNLAADLEVEALNEAEEKEE
B7: GBRAP_35_5510 (protein)
chain: STEETTADMLIATIEDAVLALPDVDVETAAAIARSLARAARELAEELRDDLEALRRLAEELRRLLEAVRKHYGDSPLAKETAEELEEVLREVERLAEEAE
B8: GBRAP_11_2787 (protein)
chain: KKEKLKELAKLLEEAAKLLEKLLAGDPNDEELWKKLEELLKKAKELAKELGLEDVAELLEEAKKDLEKAKADPENRDLYLQNALTHVRVAKGLVLLEIEE
B9: GBRAP_184_5314 (protein)
chain: EVVHHVIEVETPEEARAKLAAIEAEIKASGKKHTVVIFLKNPTKELLDTVMDEIKAMKAAGVDADFIVVIEEPLDEEMTDYAVEKADEAGARVVIALPEE
B10: GBRAP_14_3876 (protein)
chain: MEEIEKVLEEMVKEIVAFVAEVAPEKAPEVKERLEELLKKALEEIKKTGDPLAAFDKMEKEMLEKMEEITADLPEEDRTAILAHLRVELAEARERIDEIL
B11: GBRAP_74_6550 (protein)
chain: MEEKLEEAEKAFENGDYLKAAKILKEILEEKPNEETIKRIQKLIVRLAEKLDELDDEAIEALADAVAELYTNVPDELISDETYRAAARILAAAVAREKAR
B12: GBRAP_52_5958 (protein)
chain: MREKMKKLVEEALELKKEGKEEELEKLLREIAKTLNEEELELLAEEMAERVEESNLEEAEILLDIALRLGDILIEEGRDEGIASYIEARVAAAAYKLEQK
B13: GBRAP_160_4455 (protein)
chain: SERLKKYLEEIDEIREEAKELIEGETHEQRVVIIEGLFGEFLMELVEDERISDEVEDKVAEIIDELIETLRANPDLTEEEIKELIDEAAEKIKEVLKKEL
B14: GBRAP_79_6749 (protein)
chain: GEKEARKALAEALKVVLPELTEEELEKMVEDDEALKAALERAGLSREMADELLEAIKKIPEYAKELFEKAVKRMEGLPAEEKRDILEATVAAVIYEAEKL
B15: GBRAP_11_2874 (protein)
chain: KKEKLKKMKELAEKLAKALKRLLEEGVDNEELRKEIRELVKELKKLVEEYGDPAEKKLVEILAELVEEAEEDPENAEQYVKEALAAAQVLAGQYLLKLEE
B16: GBRAP_83_6919 (protein)
chain: KEEIVVAGPGDRAEEMADIVIDLTKEEGYEVDVEIIVTKEEKEKVLEMVKRLAEAGIETKITILAKGMTEEEAEELKKKLEEIAKEHGVKIEIEVYVIEE
B17: GBRAP_52_6061 (protein)
chain: SEEKIKKLAEEIYKKIKAGDLEGALKLLEEAVEELSKEEITELLKLTAKLVAKGNDEQHELFVELLDEFEDIMIEKGISEEEALIIVGEAEATLAKEVAK
B18: GBRAP_52_6294 (protein)
chain: SMEEVEKKAKEIVELVKEGKLEEAIELAKKFVEENSLEEALELGKLLIEKIEELTPEEAELMLEVIEALAEEIEKEFGAEEEADILEAEAAAAAYKVLQK
B19: GBRAP_160_4712 (protein)
chain: SEVAEELKKYVEEEFKKAKELIKGETIEQRAIIVEGTIGEIIMELFENPEASDELIDEVDKIGDELVEYIKKNPDLTEEEIEELIDEATKKIKEAIEKYV
B20: GBRAP_11_2822 (protein)
chain: EKEKLKELAKKARELAKEIEKLIKSGNVTEEELKELLKKAKELLKFTEEYGDKDKAKLAKIALENIEEAIKNKENLKEYLENALAAVRVLEGDYLLDYEE
B21: GBRAP_160_4020 (protein)
chain: SEEREKLIEEIRELIEETKEEIKGLSPEERLTLVRGMTGEIIQLAEESPVISDETEDKIAEIADETIKRFEANKNASLEEWEKLLEEFLEEIEELIKEEE
B22: GBRAP_74_6502 (protein)
chain: QEARLAAARAAATLEEVLALLDWAVAHIDELDQETLDAIARRAAAAIERAMAAGDWEGLRRLVEAAERLLVALPGERLNAAVAELIAAMQRAEALLAAQE
B23: GBRAP_128_3400 (protein)
chain: MQEELLKEAKELIDKIVEADVEEARKYAEELMELLKKMNKETREEVAEYLKEKLPELTAEKLEVVADVFRENRPKDDPELANIVADMEVEALNEAVEKEE
B24: GBRAP_42_5730 (protein)
chain: MLAITLEIVAETQEEALRMVRAALEEDERLLEERGVVVEIEVAVPEGLSPEILELVERSRERAEEADHESEWVGVANTLEEVPRTIRAVADEALEALEEE
B25: GBRAP_52_5859 (protein)
chain: MVEEAVELLKKAIEAMKEGKEEEAKEILKEIVENFDEETIVAAAEKLAEEMEGWSKEDAEAAFKTAELLGKILEEAGYDEEVVTLIEDTIGAAVARVEAR
B26: GBRAP_52_6062 (protein)
chain: SEEKIEKLAKEIYEAIKKGDKDKALELLKKAIEELSIEEIRELLIKTAKLVAKGNDEEHELFVEILDEFEDDMIEKGISEEEALLIVGDAEAELAKEVAK
B27: GBRAP_52_6358 (protein)
chain: ALEEALALLREALAAVAAGDEEEARAILEELVATYSEETILAAFERLAEEVADKDVATAEALLETALLLADVMDEAGRDPAVADDIEAIAARTYMAVKAK
B28: GBRAP_160_3967 (protein)
chain: SEEVEALIEEIEELFEEAKELIEGESFEERLTIIRVMVGEVLLLADESPLVSDETEEKIAEIGDELIETLEENPDLSLEEIKELIEEAREKIKEVILEEH
B29: GBRAP_122_2951 (protein)
chain: GSEEEVEKAVEEAMKRAEEGDPAKAILEALREAAERFSEEDLIEFARRLAEEARKRGIEAEAAKAFAEAAIWLLEERPELREAADELLELAIELLDLLEE

The binders below were run against GABARAP, O95166 (assay: median log2 fold change of GCK-ALFA target abundance (FLAG IP / Myc IP barcode read proportion) (log2 ratio); each designed protein is fused to an ALFA-tag nanobody in HEK293 cells to bring the named protein to FLAG-tagged glucokinase (GCK); Myc marks an untargeted standard; higher = target protein stabilised (more abundant)). Conditions: target protein: 3xFLAG-MCP-GCK-ALFA reporter; HEK293 landing pad (RPLP).
How it was run: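 Binders fused to an ALFA nanobody were recombined as a library into HEK293 landing-pad cells, which were induced with 2 μg mL^−1 doxycycline and then transfected to express a FLAG-tagged target and a Myc-tagged standard. After 48 h, circular RNA barcodes recovered by anti-FLAG and anti-Myc immunoprecipitation of lysates were reverse transcribed, amplified and sequenced. Each binder's target abundance is the median log2 ratio of FLAG to Myc barcode read proportions, from barcodes present at ≥10^−7 in both replicates, binders carrying ≥3 barcodes per replicate, a 10^−6 pseudocount and pooled replicates.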

GABARAP, O95166, sequence (O95166 whole entry, the tested form may be a part): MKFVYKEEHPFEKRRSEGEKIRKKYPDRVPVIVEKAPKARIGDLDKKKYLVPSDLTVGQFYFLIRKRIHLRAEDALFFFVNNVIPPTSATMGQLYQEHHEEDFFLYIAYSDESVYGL

Binder	median log2 fold change
B1	-0.243
B2	0.203
B3	-0.0567
B4	0.0775
B5	-0.162
B6	-0.039
B7	-0.0935
B8	-0.00588
B9	0.0282
B10	0.285
B11	-0.0175
B12	-0.199
B13	-0.17
B14	0.226
B15	-0.153
B16	0.259
B17	-0.546
B18	0.0653
B19	0.019
B20	-0.0567
B21	0.19
B22	-0.034
B23	0.254
B24	-0.122
B25	-0.0198
B26	-0.215
B27	-0.632
B28	-0.498
B29	-0.311
